Reference: paper PMC5714546 (Journal of molecular biology, 2016)

What was measured:
[1] = target: T1, Myo9b-RhoGAP (residues 1691-1916) V1870A (human, UniProt Q13459-1 1691-1916, V1870A); test: ITC
T1 sequence (looked up): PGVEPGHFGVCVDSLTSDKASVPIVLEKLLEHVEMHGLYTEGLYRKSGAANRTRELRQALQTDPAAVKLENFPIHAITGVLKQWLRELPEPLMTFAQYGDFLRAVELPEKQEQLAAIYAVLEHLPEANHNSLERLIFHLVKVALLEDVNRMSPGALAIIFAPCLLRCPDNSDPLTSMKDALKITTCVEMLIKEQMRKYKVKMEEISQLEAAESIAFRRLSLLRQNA

[2] = target: T2, Myo9b-RhoGAP (residues 1691-1916) R1776A (human, UniProt Q13459-1 1691-1916, R1776A); test: ITC
T2 sequence (looked up): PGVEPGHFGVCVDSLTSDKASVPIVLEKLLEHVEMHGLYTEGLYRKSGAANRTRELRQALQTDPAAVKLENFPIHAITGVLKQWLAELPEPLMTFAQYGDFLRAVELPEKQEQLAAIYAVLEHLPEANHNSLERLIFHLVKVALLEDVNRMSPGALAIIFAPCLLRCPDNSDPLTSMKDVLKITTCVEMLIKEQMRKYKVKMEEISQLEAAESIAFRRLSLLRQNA

[3] = target: T3, Myo9b-RhoGAP (residues 1691-1916) I1848A (human, UniProt Q13459-1 1691-1916, I1848A); test: ITC
T3 sequence (looked up): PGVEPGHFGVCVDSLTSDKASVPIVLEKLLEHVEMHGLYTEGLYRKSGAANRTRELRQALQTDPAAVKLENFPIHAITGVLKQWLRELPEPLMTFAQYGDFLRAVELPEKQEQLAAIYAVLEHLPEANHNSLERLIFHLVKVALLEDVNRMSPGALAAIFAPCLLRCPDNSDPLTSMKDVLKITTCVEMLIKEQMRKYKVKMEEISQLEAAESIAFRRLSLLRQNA

[4] = target: T4, Myo9b-RhoGAP (residues 1691-1916) R1742E (human, UniProt Q13459-1 1691-1916, R1742E); test: ITC
T4 sequence (looked up): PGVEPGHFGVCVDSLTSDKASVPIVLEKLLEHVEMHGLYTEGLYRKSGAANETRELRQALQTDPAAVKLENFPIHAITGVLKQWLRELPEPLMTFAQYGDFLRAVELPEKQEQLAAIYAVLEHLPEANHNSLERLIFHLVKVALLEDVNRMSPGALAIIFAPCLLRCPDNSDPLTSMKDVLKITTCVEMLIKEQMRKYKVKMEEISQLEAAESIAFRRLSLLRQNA

[5] = target: T5, Myo9b-RhoGAP (residues 1691-1916) R1744E (human, UniProt Q13459-1 1691-1916, R1744E); test: ITC
T5 sequence (looked up): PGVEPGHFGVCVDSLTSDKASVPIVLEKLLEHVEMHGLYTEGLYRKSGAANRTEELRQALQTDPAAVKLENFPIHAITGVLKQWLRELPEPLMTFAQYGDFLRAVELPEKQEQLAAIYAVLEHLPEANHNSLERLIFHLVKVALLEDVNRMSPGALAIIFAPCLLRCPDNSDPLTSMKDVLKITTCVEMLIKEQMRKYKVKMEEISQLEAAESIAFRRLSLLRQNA

[6] = target: T6, RhoGAP domain of human Myo9b (Myo9b-RhoGAP, residues 1691-1916) (human, UniProt Q13459-1 1691-1916); test: SEC
T6 sequence (looked up): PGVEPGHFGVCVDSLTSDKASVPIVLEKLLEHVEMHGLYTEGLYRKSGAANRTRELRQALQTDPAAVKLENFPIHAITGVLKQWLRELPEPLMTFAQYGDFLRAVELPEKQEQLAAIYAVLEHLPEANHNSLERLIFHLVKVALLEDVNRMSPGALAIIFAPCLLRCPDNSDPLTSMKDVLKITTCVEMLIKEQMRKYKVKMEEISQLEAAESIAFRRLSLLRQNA

[7] = target: T7, GST-tagged Myo9b-RhoGAP, wild type (human, UniProt Q13459-1 1691-1916); test: pull-down
T7 sequence (looked up): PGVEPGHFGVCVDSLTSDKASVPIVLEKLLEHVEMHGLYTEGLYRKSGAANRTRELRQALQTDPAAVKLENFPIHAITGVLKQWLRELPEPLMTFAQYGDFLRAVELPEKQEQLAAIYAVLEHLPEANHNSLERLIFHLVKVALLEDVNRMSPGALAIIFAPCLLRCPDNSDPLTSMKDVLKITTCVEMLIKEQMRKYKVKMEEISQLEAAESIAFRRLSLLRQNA

Measured: binding result

B1: human RhoA ([…], F25N) (domain or fragment)
chain: not shown
binds: all assays above
